Reference: PubChem BioAssay AID485281 (National Center for Advancing Translational Sciences (NCATS), 2010)
In all, about 350,000 compounds went through this assay and about 260 (0.074%) were called active. The shares of active, inactive and inconclusive entries below differ from those in the screen. The call rests on the fitted dose curve; in most records, active means well fitted inhibition curve with a large enough effect; inconclusive means small, poorly fitted or top-dose-only effect; inactive means no such curve, though single readings can be large or run the other way. Potencies of inconclusive entries are doubtful fits and often do not repeat.

What follows are compounds tested against Ferritin light chain (Equus caballus) (UniProt P02791) (assay: qHTS Assay for Identification of Novel General Anesthetics). Conditions: apoferritin/1-aminoanthracene competitive binding, fluorescence; activity change, negative = displacement: at 77.5 µM (top of the series).
How it was run: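 10 uM apoferritin + 50% sat. 1-AMA, PBS; cpd 10 min RT; Ex380/Em535 endpoint; normalized to free probe vs complex; 4-param Hill fit; propofol titration as pos. ctrl.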
Further: nearly all actives have a fitted effect of over 20% in size.
On the % scale 0 is the no-effect control and ±100 the full control effect; potency means the concentration at half of the fitted maximal effect; tags describe the fitted curve by direction and shape.

UniProt P02791, sequence (P02791 whole entry, looked up): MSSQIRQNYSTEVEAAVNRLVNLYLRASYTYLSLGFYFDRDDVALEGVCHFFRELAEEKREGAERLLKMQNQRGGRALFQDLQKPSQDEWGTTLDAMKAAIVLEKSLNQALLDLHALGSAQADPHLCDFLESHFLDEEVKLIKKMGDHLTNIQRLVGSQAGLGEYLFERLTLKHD

Row | SMILES | activity change, negative = displacement | Potency
1 | CC(NC(=O)/C=C/c1ccco1)c1nc2ccccc2n1Cc1cccc(Cl)c1 (stereo not given) | inactive: -8.82% | –
2 | CCN(CC)CCC(c1ccc2c(c1)OCO2)c1c(OC)cc(OC)c2c(-c3ccccc3)cc(=O)oc12 (stereo not given) | – | inconclusive: 31.6 µM [inhibitor, partial curve]
3 | CC(C)N(Cc1ccccc1)S(=O)(=O)N(C)C | – | inconclusive: 22.4 µM [inhibitor, partial curve]
4 | CCOc1ccccc1C1C(C(=O)OC)=C(N)OC2=C1C(=O)CCC2 (stereo not given) | – | inconclusive: 39.8 µM [inhibitor, partial curve]
5 | O=C(CC(n1cncn1)C(Cl)(Cl)Cl)c1ccc([N+](=O)[O-])cc1 (stereo not given) | – | inconclusive: 50.1 µM [inhibitor, single point]
6 | c1ccc(C2OCC3(CO2)COC(c2ccccc2)OC3)cc1 (stereo not given) | inactive: -6.84% | –
7 | CC1CCC(NC(=O)c2nn(C)c3c2CS(=O)(=O)c2ccccc2-3)CC1 (stereo not given) | – | inconclusive: 31.6 µM [inhibitor, partial curve]
8 | CN(C)C(=O)/C(=C\c1ccc(-c2cccc([N+](=O)[O-])c2)o1)NC(=O)c1ccccc1 | – | inconclusive: 28.2 µM [inhibitor, partial curve]
9 | COc1ccc(NC(=O)c2ncoc2-c2ccco2)cc1Cl | inactive: 3.55% | –
10 | Cc1ccc(NC(=O)c2c(C)nc3sc(C(=O)NC4CCCC4)c(N)c3c2-c2ccco2)c(C)c1 | inactive: -2.25% | –
11 | COc1ccc(OC)c(-c2nnc3n(CCc4ccccc4)c(=O)c4ccccc4n23)c1 | – | inconclusive: 35.5 µM [inhibitor, partial curve]
12 | Cc1ccc(NC(=O)N(Cc2ccco2)C(C)c2ccco2)cc1C (stereo not given) | – | inconclusive: 17.8 µM [inhibitor, partial curve]
13 | O=C(OCC(=O)N1CCN(c2ccccc2)CC1)c1cc(Cl)ccc1[N+](=O)[O-] | – | inconclusive: 31.6 µM [inhibitor, partial curve]
14 | CCSc1nc2c(c(=O)[nH]c(=O)n2C)n1C/C=C(/C)Cl | inactive: 6.49% | –
15 | O=C(NCc1cccs1)C1CCCCC1 | – | inconclusive: 56.2 µM [inhibitor, single point]
16 | COc1ccc(CCNc2oc(COc3ccc(F)cc3)nc2C#N)cc1 | inactive: -5.84% | –
17 | O=C(CN1C2=NCCN2c2ccccc21)c1ccc2c(c1)OCO2 | inactive: -18.3% | –
18 | C#CCN1C(=O)S/C(=C\c2ccc(N3CCOCC3)cc2C)C1=O | inactive: -16.5% | –
19 | CCN(CC)C(=O)Cn1c(=O)n(CCCCCC(=O)Nc2ccccc2)c(=O)c2sccc21 | – | inactive
20 | C=C(C)c1cccc(C(C)(C)NC(=O)Nc2ccc(C(C)=O)cc2)c1 | – | inconclusive: 50.1 µM [inhibitor, single point]
21 | COCCCn1c(SCc2nnc(-c3ccccc3)o2)nc2sc3c(c2c1=O)CCC3 | inactive: -18.8% | –
22 | COc1c(N2CCN(C(=S)NC3CC4CCC3C4)C(C)C2)c(F)cc2c(=O)c(C(=O)O)cn(C3CC3)c12 (stereo not given) | inactive: -12.1% | –
23 | Cc1cccc(-n2ncc3c(NCc4cccnc4)ncnc32)c1 | inactive: -13.9% | –
24 | CCCC[C@H]1C2=C3[C@@H](CC(C(=O)OC)=C[C@@H](C(=O)OC)[C@H]3C(C)(C)C2=O)n2c(=O)n(C)c(=O)n21 | inactive: -3.47% | –

Row | SMILES | activity change, negative = displacement | Potency
25 | CCOc1cc2[nH]c(=O)n(CCC(=O)N3CCN(c4ccccc4OC)CC3)c(=O)c2cc1OCC | inactive: -13.1% | –
26 | COC(=O)c1ccc(NC(=O)CSc2nccn2Cc2ccc(Cl)cc2)cc1 | – | inconclusive: 35.5 µM [inhibitor, single point]
27 | COC(=O)c1sc(S(=O)(=O)N2CCN(c3ccc(OC)cc3)CC2)c(C(=O)OC)c1C | – | inconclusive: 5.01 µM [inhibitor, full curve]
28 | CCOC(=O)c1c(C)[nH]c(C(=O)NNC(=O)c2ccc(C(C)(C)C)cc2)c1C | – | inconclusive: 12.6 µM [inhibitor, partial curve]
29 | COc1ccc(OCC(=O)Nc2ccc(S(=O)(=O)N3CCN(C)CC3)cc2)cc1 | – | inconclusive: 35.5 µM [inhibitor, single point]
30 | CCNC(=O)C1=C(O)c2sccc2N(C)S1(=O)=O | inactive: 5.63% | –
31 | COc1cc(NC(=O)CN2C(=O)C(c3ccc(C)cc3)=NC23CCCCCC3)cc(OC)c1 | – | inconclusive: 7.08 µM [inhibitor, partial curve]
32 | Cn1c(CCN2CCCC2)nc2cc(NS(=O)(=O)c3ccc(Cl)cc3)ccc21 | inactive: -11.5% | –
33 | O=[N+]([O-])c1ccc(N2CCN(S(=O)(=O)c3ccccc3)CC2)cc1NCCN1CCOCC1 | – | inconclusive: 31.6 µM [inhibitor, partial curve]
34 | Cc1ccc(-c2csc(NCCn3c(C(F)(F)F)nc4ccccc43)n2)cc1 | – | inconclusive: 35.5 µM [inhibitor, partial curve]
35 | O=C(CO/N=C/c1ccc(OC(F)F)cc1)NC1CCCC1 | – | inconclusive: 25.1 µM [inhibitor, partial curve]
36 | CCOc1ccccc1N(C)C(=O)c1cc(S(=O)(=O)NCc2ccc(C)cc2)ccc1F | inactive: 82.9% | –
37 | Cc1ccc(CN2C(=O)C(C)Oc3ccccc32)cc1 (stereo not given) | – | inconclusive: 28.2 µM [inhibitor, partial curve]
38 | CCOC(=O)N/N=C\c1ccc([N+](=O)[O-])o1 | inactive: -19.6% | –
39 | COc1ccc(O[C@H]2C=C[C@@H](c3ccccc3)O[C@H]2COC(=O)CC/C(C)=N\O[C@@H](C)c2cn([C@H]3COC[C@H]3O)nn2)cc1 | inactive: 5.18% [at 15.3 µM] | –
40 | Cc1ccc(NC(=O)c2nc[nH]c2C(=O)N2CCCCC2)c(C(=O)c2ccccc2)c1 | – | inconclusive: 35.5 µM [inhibitor, partial curve]
41 | CCN(CC)CCCC(C)Nc1nc(C)cc(Nc2ccc3nc(C)cc(N)c3c2)n1 (stereo not given) | inactive: 3.25% | –
42 | O=C(COc1ccccc1Cl)N1CCCCCCC1 | – | inconclusive: 7.08 µM [inhibitor, partial curve]
43 | CC12CCC(C(=O)NCc3ccc4c(c3)OCO4)(C(=O)C1=O)C2(C)C (stereo not given) | – | inconclusive: 39.8 µM [inhibitor, partial curve]
44 | N=c1c(S(=O)(=O)c2ccc(Cl)cc2)cc2c(=O)n3ccccc3nc2n1CC1CCCO1 (stereo not given) | inactive: 5.05% | –
45 | Cc1ccc(C)c(NC(=O)N2CCc3ccccc3C2)c1 | – | inconclusive: 28.2 µM [inhibitor, partial curve]
46 | CNC(=O)[C@H]1O[C@@H](n2cnc3c(NCc4cccc(I)c4)nc(Cl)nc32)[C@H](O)[C@@H]1O | – | inconclusive: 35.5 µM [inhibitor, single point]
47 | CCOC(=O)C1CCN(C2=C(NS(=O)(=O)c3ccc(Cl)cc3)C(=O)c3ccccc3C2=O)CC1 | inactive: -23.5% | –
48 | O=C(CCC1CCCC1)c1c(O)c2ccccc2oc1=O | inactive: 1.33% | –

Row | SMILES | activity change, negative = displacement | Potency
49 | COc1ccc(NC(=O)CN2CCN(c3nc(-c4ccc(F)cc4)cs3)CC2)c(OC)c1 | inactive: -2.09% | –
50 | CC1(c2ccccc2)CC(c2ccccc2)=Nc2nonc2N1 (stereo not given) | – | inconclusive: 39.8 µM [inhibitor, partial curve]
51 | Cc1ccc(N/N=C/c2ccncc2)cc1 | inactive: -19.6% | –
52 | CC(C)c1ccc2[nH]c(O)c(N=NC(=S)NCCc3ccccc3)c2c1 | – | inconclusive: 28.2 µM [inhibitor, partial curve, poor fit]
53 | c1cc2c(cc1C1CCCCC1)c1c3n2CCCNC3CCC1 (stereo not given) | – | inconclusive: 50.1 µM [inhibitor, single point]
54 | O=C(Nc1ccccc1N1CCN(C(=O)c2ccc(Cl)cc2)CC1)c1cccnc1 | – | inconclusive: 39.8 µM [inhibitor, single point]
55 | O=C(CCC1N=C2c3ccccc3N=C(SCc3ccc(Cl)cc3)N2C1=O)NCCc1ccccc1 (stereo not given) | – | inconclusive: 15.8 µM [inhibitor, partial curve]
56 | O/N=C/c1cc(Br)ccc1OCc1cccc(F)c1 | – | inconclusive: 35.5 µM [inhibitor, partial curve]
57 | O=C(Nc1ccc(F)cc1)c1ccccc1Oc1ccc(C(F)(F)F)cc1[N+](=O)[O-] | – | inconclusive: 50.1 µM [inhibitor, single point]
58 | CS(=O)(=O)c1ccc2nc(NC(=O)c3ccccc3)sc2c1 | inactive: 4.23% | –
59 | COCCNC(=O)NC(=O)COC(=O)c1cc([N+](=O)[O-])ccc1Sc1nc(C)cs1 | – | inconclusive: 28.2 µM [inhibitor, partial curve]
60 | O=C(CNc1cccc([N+](=O)[O-])c1)N/N=C/c1ccc(F)cc1 | – | inconclusive: 22.4 µM [inhibitor, partial curve]
61 | Cc1cccc(OCCCCc2c(C)n[nH]c2C)c1 | – | inconclusive: 28.2 µM [inhibitor, partial curve]
62 | CCOC(=O)c1c(S(=O)(=O)NCC(=O)N2CCN(c3ccccc3)CC2)c(C)n(C)c1C | – | inconclusive: 17.8 µM [inhibitor, partial curve]
63 | O=C(NCc1cc(C(F)(F)F)cc(C(F)(F)F)c1)C1CC(c2ccccc2[N+](=O)[O-])=NO1 (stereo not given) | – | inconclusive: 35.5 µM [inhibitor, partial curve]
64 | CC1Cc2ccccc2N1C(=O)Cn1nc(C(=O)O)c2ccccc2c1=O (stereo not given) | – | inconclusive: 22.4 µM [inhibitor, partial curve]
65 | CCn1c2ccccc2c2nnc(SCc3ccc(C(=O)OC)o3)nc21 | – | inconclusive: 28.2 µM [inhibitor, partial curve]
66 | COc1ccc(O[C@H]2C=C[C@@H](c3ccccc3)O[C@@H]2CON=C(C)C)cc1 | inactive: -16.6% [at 15.3 µM] | –
67 | COC(=O)/C=C/c1ccsc1NC(C)=O | inactive: -8.51% | –
68 | CN(CC(=O)N1CCc2ccccc21)S(=O)(=O)c1cccs1 | inactive: -16.1% | –
69 | CCOc1ccc2nc(N3CCCC(C(=O)NCC4CCCO4)C3)sc2c1 (stereo not given) | inactive: 4.44% | –
70 | CCCN(CCC)C(=O)Cn1c(=O)n(-c2ccccc2)c(=O)c2c3c(sc21)CCCC3 | – | inconclusive: 25.1 µM [inhibitor, partial curve]
